# Out of some 350,000 compounds screened, about 9,900 (2.8%) were called active. The shares of active, inactive and inconclusive entries below differ from those in the screen. The call rests on the fitted dose curve; in most records, active means well fitted activation curve with a large enough effect; inconclusive means small, poorly fitted or top-dose-only effect; inactive means no such curve, though single readings can be large or run the other way. No potency is given beside an inconclusive call; the fits are too rough.
# Assay: A quantitative high throughput screen for small molecules that induce DNA re-replication in MCF 10a normal breast cells. Further: nearly all actives have a fitted effect of over 50% in size.
# Conditions: MCF 10A DNA re-replication, Hoechst nuclear intensity, 48 h; series mostly up to 46.1 µM
# Potency means the concentration at half of the fitted maximal effect; tags describe the fitted curve by direction and shape.
row,Structure (SMILES),Potency
1,COc1ccc(S(=O)(=O)Nc2ccc3c(c2)C(=O)N([C@H](C)CO)C[C@@H](C)[C@@H](CN(C)S(=O)(=O)c2ccc(Cl)cc2)O3)cc1,"inconclusive [activator, single point]"
2,CCOC(=O)c1c(NC(=O)CN2C(=O)NC3(CCCCC3)C2=O)sc(C)c1-c1ccc(C)cc1,"inconclusive [activator, single point]"
3,C=CC(=O)NN(C)c1ncc(C(F)(F)F)cc1Cl,"inconclusive [activator, partial curve, poor fit]"
4,Cc1ccc(-n2nc3c4c(cccc4c2=O)-c2ccccc2-3)cc1,"inconclusive [activator, full curve, poor fit]"
5,CC(=O)c1ccc(C#CC(C)(C)O)s1,"inconclusive [activator, partial curve, poor fit]"
6,CN1CCN(c2ccc([N+](=O)[O-])cc2NC(=O)c2ccco2)CC1,inactive
7,C=CCn1cc(C(=O)NCC2CCCO2)c(=O)c2cc(S(=O)(=O)N3CCCCCC3)ccc21 (stereo not given),inactive
8,CCNC(=O)NC(=O)C(C)Sc1nnc(COc2ccccc2Cl)o1 (stereo not given),"inconclusive [activator, single point]"
9,Cc1cccc(C(=O)Oc2ccccc2/C=N/Nc2ccc([N+](=O)[O-])cc2)c1,"inconclusive [activator, single point]"
10,O=C(Nc1cc(Br)c(O)c(Br)c1)c1cccc(NC(=O)c2ccco2)c1,active: 0.731 µM
11,O=c1cc(SCc2ccccc2)nc[nH]1,inactive
12,Cc1ccccc1N1CC(C(=O)N2CC(C)OC(C)C2)CC1=O (stereo not given),"inconclusive [activator, single point]"
13,c1ccc(N2CCN(c3ncnc4scc(-c5cccs5)c34)CC2)cc1,"inconclusive [activator, full curve, poor fit]"
14,C/C(=N\NC(=S)NCCc1ccccc1)c1ccc(O)cc1O,"inconclusive [activator, partial curve, poor fit]"
15,COc1ccc(OC)c(N2C(=O)c3cccnc3C2=O)c1,"inconclusive [activator, single point]"
16,CCc1cc(=O)oc2cc(C)c(CN3CCCC(C)C3)c(O)c12 (stereo not given),active: 23.1 µM
17,COc1cc(/C=C2/SC(=NCc3ccccc3)N(Cc3ccccc3)C2=O)ccc1O,active: 5.8 µM
18,CCc1ccccc1NC(=O)NC1CC2CCC(C1)N2Cc1cccs1 (stereo not given),"inconclusive [activator, single point]"
19,CC(C)CNC1=C(C(=S)Nc2ccccc2)C(=O)CC(C)(C)C1,"inconclusive [activator, partial curve, poor fit]"
20,CCOC(=O)c1c(C)nn(-c2ccc(NC(=O)CSCC(=O)O)cc2)c1C,"inconclusive [activator, partial curve, poor fit]"
21,CC1CCN(C(=O)Cn2c(=O)n(CCc3ccccc3)c(=O)c3ccccc32)CC1,"inconclusive [activator, single point]"
22,Cc1cc(C)c(C)c(S(=O)(=O)NCc2ccncc2)c1C,"inconclusive [activator, partial curve, poor fit]"

row,Structure (SMILES),Potency
1,CC(C)NC(=O)C(c1ccc(F)cc1)N(C(=O)CCC(=O)Nc1ccccn1)C1CCCC1 (stereo not given),inactive
2,COC(=O)C1=C(C)N(CC2CCCO2)C(=O)/C1=C\c1ccc(O)cc1 (stereo not given),"inconclusive [activator, single point]"
3,CCCCCNS(=O)(=O)c1cc2c3c(c1)CCC(=O)N3CCC2,inactive
4,CC(=O)c1c(C)nn(CC(O)Cn2c3c(c4cc(C)ccc42)CCCC3=O)c1C (stereo not given),"inconclusive [activator, full curve, poor fit]"
5,Cc1cc(C)n2c(SC(C)C(=O)NC3(C#N)CCCCC3)nnc2n1 (stereo not given),"inconclusive [activator, single point]"
6,CCOc1ccc(C(=O)Nc2ccc(S(=O)(=O)Nc3cc(C)on3)cc2)cc1,"inconclusive [activator, full curve, poor fit]"
7,CC(NC(=O)/C(C#N)=C1\N=C(NC(=O)c2cccs2)c2ccccc21)c1ccccc1 (stereo not given),"inconclusive [activator, single point]"
8,Cc1cnc(C(=O)Nc2nnc(C3CC3)s2)cn1,inactive
9,Cc1cc(=O)[nH]c(NN=Cc2cc(Br)ccc2O)n1,"inconclusive [activator, partial curve]"
10,O=c1c2ccccc2ncn1Cc1ccc(Cl)c(Cl)c1,active: 1.16 µM
11,Cc1ccc(S(=O)(=O)NC(CC(C)C)C(=O)N2CCCCCCC2)cc1 (stereo not given),inactive
12,COc1ccc2oc(C(=O)OCC(=O)NCc3ccc(OC)c(OC)c3)c(C)c2c1,"inconclusive [activator, single point]"
13,Cc1cc(NC(=O)CN2CCc3ccccc3C2)nc2c1c(=O)oc1ccccc12,"inconclusive [activator, single point]"
14,CC(C)Nc1nc(Oc2ccc(Cl)cc2)cc(C(F)(F)F)n1,active: 23.1 µM
15,CCc1c(O)cc2n(c1=O)-c1ccc(Cl)cc1C2(C)C,"inconclusive [activator, full curve, poor fit]"
16,Fc1nc(F)c(F)c(NCCCNc2c(F)c(F)nc(F)c2F)c1F,"inconclusive [activator, single point]"
17,O=C(NC1=C(NC2CCS(=O)(=O)C2)C(=O)c2ccccc2C1=O)c1ccccc1 (stereo not given),"inconclusive [activator, full curve, poor fit]"
18,N=C1/C(=C\c2ccc(-c3ccc(C(=O)O)cc3)o2)C(=O)N=C2SC=C(c3ccccc3)N12,"inconclusive [activator, full curve, poor fit]"
19,Cc1ccc(C(=O)NC(=S)/C=C2\N(C)c3ccccc3C2(C)C)cc1,"inconclusive [activator, full curve, poor fit]"
20,O=C(/C=C/c1ccc(Cl)cc1)NC(=S)Nc1ccc(CN2CCOCC2)cc1,active: 20.6 µM
21,Cc1cc(Br)cc(C)c1NC(=O)c1ccc(C#N)cc1F,"inconclusive [activator, single point]"
22,COc1cccc(CN(C)C(c2ccccc2)c2ccccc2)c1OC,"inconclusive [activator, single point]"

row,Structure (SMILES),Potency
1,Cc1cccc(Nc2ncnc3onc(-c4cccc(Cl)c4)c23)c1C,inactive
2,Cc1ccnc2nc(NC(=O)c3ccco3)nn12,inactive
3,CC(C(=O)NCCc1ccc(F)cc1)N1CCN(Cc2ccccc2)CC1 (stereo not given),"inconclusive [activator, partial curve, poor fit]"
4,COc1cccc(CN(C)C(=O)COc2cccc3c2OC(C)(C)C3)c1OC,inactive
5,CCOC(=O)C1(C)NC(c2ccc(N(C)C)cc2)C2C(=O)N(c3ccc(OC)cc3)C(=O)C21 (stereo not given),inactive
6,CCN1C(=O)C(CC(=O)Nc2ccccc2Cl)N(NC(=O)c2cccc(F)c2)C1=S (stereo not given),"inconclusive [activator, single point]"
7,Cc1ccc(Nc2nc(N3CCOCC3)nc(N3CCOCC3)n2)cc1C,"inconclusive [activator, single point]"
8,COc1ccc(-c2nc3cc(NC(=S)NC(=O)Cc4ccccc4)ccc3o2)cc1,"inconclusive [activator, partial curve]"
9,CCOc1ccc(NC2=CC(=O)C(=O)c3ccccc32)cc1,"inconclusive [activator, partial curve]"
10,O=C(Nc1ccc(F)cc1)NC1(C(=O)NCc2ccc3c(c2)OCO3)CCCCC1,"inconclusive [activator, partial curve]"
11,Cc1cccc(CSc2nnc(-c3cccs3)n2Cc2ccco2)c1,"inconclusive [activator, single point]"
12,O=c1cc(-c2ccco2)oc2c1ccc1ccccc12,inactive
13,CC(CCc1ccccc1)NCc1ccc(Cl)cc1Cl (stereo not given),"inconclusive [activator, partial curve, poor fit]"
14,N#Cc1c(C(F)(F)F)cc(-c2ccccc2)nc1SCCN1CCOCC1,"inconclusive [activator, partial curve, poor fit]"
15,O=C(CCCNC(=O)c1ccc(Cl)cc1)Nc1ccc(Br)cc1,"inconclusive [activator, partial curve, poor fit]"
16,CCOc1cc(C)ccc1OCc1nnc(SCC(=O)c2cccc([N+](=O)[O-])c2)n1CC,"inconclusive [activator, partial curve, poor fit]"
17,CCOc1cc(/C=N\Nc2nc(Nc3ccccc3)nc(N3CCOCC3)n2)ccc1OC(=O)c1ccco1,"inconclusive [activator, partial curve]"
18,CCN(Cc1nc2ccccc2c(=O)[nH]1)C(=O)c1ccc(C)c(NC(=O)c2ccco2)c1,inactive
19,CC[C@@]12C(=O)N(c3cccc(Br)c3)C(=O)N1[C@H](c1cccc(C)c1)[C@@H]1C(=O)N(Cc3ccccc3)C(=O)[C@@H]12,"inconclusive [activator, full curve, poor fit]"
20,O=C(NCCc1ccccc1)C1CCN(C(=O)c2ccc(F)cc2)CC1,"inconclusive [activator, partial curve, poor fit]"
21,Cc1ccc(-c2cc(C(=O)Nc3nccs3)c3ccccc3n2)c(C)c1,"inconclusive [activator, partial curve, poor fit]"
